Data on 56 sequences can be found in the supplement of paper PMC11417369.

± gives the standard deviation of the averaged measurements. This is one part of the list.

The subject of the assay is PfAP2-G AP2 domain (GST-tagged). As to the kind of experiment: gcPBM binding intensity (ln(normalized median fluorescence intensity)); higher = stronger DNA binding. A digest of the protocol: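 After 1 h on an Agilent 4 × 180k array of primer-extended double-stranded 36-bp intergenic genomic probes and negative controls, bound GST-tagged P. falciparum DNA-binding domains were detected with Alexa488 anti-GST antibody and scanned at 488 nm. The domains had been expressed in E. coli, and binding took place in 1× PBS with 1% milk, 0.2 mg/ml BSA, 0.5% salmon testes DNA and 0.03% Triton X-100. Binding intensity is the highest Masliner-normalised natural-log median intensity across replicate spots of either probe orientation.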
As for “AAAAAAAAAAAAAAAAAAAGAAAAGAAAATAGGGTT [GTGCAC_negctrl_site421]”, the “gcPBM binding intensity (ln)” value was 10.5 ± 0.38.

For the sequence “TATTAAAATATTCTCACACACCAAAATATGTATGTA [CACACA_site6565]”, the “gcPBM binding intensity (ln)” value was determined as 9.68 ± 0.071.

Take “TTCAAAGACACAATCACACACATACATAAATATACA [CACACA_site687]”: the “gcPBM binding intensity (ln)” value amounted to 10.1 ± 0.28.

Turning to TTCCAAGAAATAATAGTGCATTATTCATTTTAATAA, the “gcPBM binding intensity (ln)” value is 9.97 ± 0.31.

With “AGGAGGAACAAACAAAACAATAAAAATTATAATAAA [GTGCAC_negctrl_site206]”, the “gcPBM binding intensity (ln)” value was found to be 9.875 ± 0.092.

Turning to “AAAAGACATTTTTTTTTATAAATACACACGTACGTG [TGCATGCA_negctrl_site281]”, the “gcPBM binding intensity (ln)” value was 11.1 ± 0.72.

Consider “AATATACATAACAAGGTGCAAAAAATATTGTTCATA [GTGCAC_site9499]”, for which the “gcPBM binding intensity (ln)” value was determined as 10.1 ± 0.11.

With “TTATTATTATGATTATTATGATGATTATACAACTGT [TGCATGCA_negctrl_site241]”, the “gcPBM binding intensity (ln)” value is 9.79 ± 0.21.

For the sequence “TAAAACAGAATGAGGAGTACAAAAAGAAGAAAAGGG [XGTACX_site1246]”, the “gcPBM binding intensity (ln)” value was 11.6 ± 0.93.

Take “AAAATAAATATTACATGTACATATATATATATATAT [XGTACX_site8492]”: the “gcPBM binding intensity (ln)” value was 11 ± 0.44.

With “AGAGGAAAAATAAAAGGAAAAAAGAAAATAATATTG [CACACA_negctrl_site852]”, the “gcPBM binding intensity (ln)” value came to 9.745 ± 0.007.

On to “ATATATTACAATATATGTACTTAATTTGCTTAAATA [XGTACX_site7912]”, for which the “gcPBM binding intensity (ln)” value was 11.3 ± 0.85.

Regarding “ATAATATTTTAGAGCAGTACACTTTTATATTTATTG [XGTACX_site5728]”, the “gcPBM binding intensity (ln)” value is 11.1 ± 0.71.

On to “GTAATCCACAAACACACACACATACACATATATATA [CACACA_site2728]”, for which the “gcPBM binding intensity (ln)” value turned out to be 10.2 ± 0.18.

As for “ATCATTTTTAATAAATGTACAAGTTTTAAAAAAAAA [XGTACX_site7340]”, the “gcPBM binding intensity (ln)” value is 11 ± 0.69.

Regarding “AAAAAAACAACATGCACACGCACACCCAAAAAAAGC [CACACA_site72]”, the “gcPBM binding intensity (ln)” value was found to be 10.4 ± 0.13.

“GTGTATTTTGTGCGCACACACATGCAAAAAGAAATA [CACACA_site6660]”: the “gcPBM binding intensity (ln)” value stood at 11 ± 0.69.

As for “AAAAAAAATTAAGCATGTATAAATATATATATATAT [CACACA_negctrl_site1540]”, the “gcPBM binding intensity (ln)” value worked out at 9.86 ± 0.5.

With “TTTTACAAGTATTGATAAATAAGAAATATATAAAAT [CACACA_negctrl_site529]”, the “gcPBM binding intensity (ln)” value is 9.97 ± 0.12.

Consider “GGTAGGTGAATATATACACACATATATTATATATAT [CACACA_site1984]”, for which the “gcPBM binding intensity (ln)” value turned out to be 10.01 ± 0.078.

As for “TACACATGTTTAAAATGTACGTTTTATAACACACAC [XGTACX_site8229]”, the “gcPBM binding intensity (ln)” value was 11.3 ± 0.82.

Take “TATATATATATGTGCACACATAAAGATATTATTTTT [CACACA_site3733]”: the “gcPBM binding intensity (ln)” value was 10.4 ± 0.48.

For the sequence “TTTTTTTTTTTTATTTGTACACATTTTCATATTTTT [XGTACX_site4406]”, the “gcPBM binding intensity (ln)” value is 11.3 ± 0.98.

Turning to “TATATTTACTCTAAGTGTACATATTATTTTATAATA [XGTACX_site2046]”, the “gcPBM binding intensity (ln)” value turned out to be 11.4 ± 0.75.

“GATCTATATATCATTACACACTTGAATTACTTAAAA [CACACA_site21]”: the “gcPBM binding intensity (ln)” value amounted to 9.855 ± 0.092.

In the case of “CAAAAATACATTATAATAATATGCACAATAATAAAT [XGTACX_negctrl_site263]”, the “gcPBM binding intensity (ln)” value was 10.03 ± 0.042.

For the sequence “ATAAAATAAAATTGGTGTACTTTTGATAAAATAAAA [XGTACX_site4264]”, the “gcPBM binding intensity (ln)” value stood at 11.4 ± 0.97.

In the case of “TAACACATAAATAAATATATACATATATATAAAATA [CACACA_negctrl_site375]”, the “gcPBM binding intensity (ln)” value amounted to 9.76 ± 0.12.

Turning to “AATATATCATAATGATGTACAAGTAAAACCGTTACA [XGTACX_site4280]”, the “gcPBM binding intensity (ln)” value was found to be 10.9 ± 0.53.

“AATATATATATATATACATGCATATATTCCTTCCTT [TGCATGCA_site890]”: the “gcPBM binding intensity (ln)” value is 9.52 ± 0.071.

Regarding “ATTCTTTTAAACAGTACACACACACCGATATATATA [CACACA_site8213]”, the “gcPBM binding intensity (ln)” value turned out to be 11.1 ± 0.64.

For “TTTGTGCCTATAAATTAACACACAGAAATATATAGA [CACACA_site8175]”, the “gcPBM binding intensity (ln)” value came to 10.1 ± 0.21.

With “AAAAACTTATATGATACACACGATAAACAAAATAAA [CACACA_site1039]”, the “gcPBM binding intensity (ln)” value is 10.18 ± 0.064.

Regarding “ATTATTATAGATATAACACACATAATTACATACTTA [CACACA_site6837]”, the “gcPBM binding intensity (ln)” value turned out to be 9.88 ± 0.11.

On to “TATTTATTTATAAATGCATGTCGCTCTTTTTATTAC [TGCATGCA_site626]”, for which the “gcPBM binding intensity (ln)” value was determined as 9.885 ± 0.092.

With “ATATATATATATATGTGTACATATAAGATAGAAGAA [XGTACX_site3198]”, the “gcPBM binding intensity (ln)” value stood at 11.5 ± 0.83.

Turning to “TTATGCATAAAAGGTGGTACTCCGTATATACATTCT [XGTACX_site4354]”, the “gcPBM binding intensity (ln)” value is 11.4 ± 0.65.

Take “AACTATAAAAGTTTTACACACTGTTTTTAAATAATG [CACACA_site7686]”: the “gcPBM binding intensity (ln)” value amounted to 10.1 ± 0.021.

Regarding “TATTAAAAAAAAAAATAAAAAAATAAAATAAAATAA [CACACA_negctrl_site580]”, the “gcPBM binding intensity (ln)” value amounted to 9.4 ± 0.085.

As to “AAAAGTAAAAAAAGCACACACGAAAAAAAATAAAAA [CACACA_site5264]”, the “gcPBM binding intensity (ln)” value turned out to be 10.1 ± 0.14.

In the case of “TCCATAAATAATTGTAGTACACATACTATGTGACAT [XGTACX_site7268]”, the “gcPBM binding intensity (ln)” value turned out to be 11.6 ± 0.93.

As for “TTTTTTAACTGTATGATGTTATATTAAAAATAAAAA [GTGCAC_negctrl_site463]”, the “gcPBM binding intensity (ln)” value was 9.79 ± 0.15.

Turning to “AACGCACGAGGACACACACACATATTTATATTTATA [CACACA_site6608]”, the “gcPBM binding intensity (ln)” value is 11.4 ± 0.91.

Take “ATTTATATATAATATACACACATATAATACCCATAT [CACACA_site4548]”: the “gcPBM binding intensity (ln)” value was determined as 10.2 ± 0.19.

As for “TTTCAAATTTAATACACACACAAGTATATATCTATC [CACACA_site7782]”, the “gcPBM binding intensity (ln)” value was 9.91 ± 0.042.

Take “ATATATTTTATATAATGTACATAAACCGCACACATA [XGTACX_site6061]”: the “gcPBM binding intensity (ln)” value was 11.1 ± 0.59.

As to “ATTTAAAAAAAAAAAAAAAAAAAAAAAAAAAGAAAA [CACACA_negctrl_site722]”, the “gcPBM binding intensity (ln)” value came out at 9.65 ± 0.085.

For “TTTAATATTAGCATATGTACACAAATCACACGGAAA [XGTACX_site2473]”, the “gcPBM binding intensity (ln)” value was 11.4 ± 0.81.

Take “TATATTATGACCACCACACACCTATACACATAACAT [CACACA_site7199]”: the “gcPBM binding intensity (ln)” value was determined as 11.4 ± 0.91.

Take “TAATCCTTTCAATATTGTACACATTTGTGTTAAGAA [XGTACX_site1275]”: the “gcPBM binding intensity (ln)” value was found to be 11.4 ± 0.99.

For the sequence “ATTTAATTTGTTCTTACACACACATATATATATATT [CACACA_site8310]”, the “gcPBM binding intensity (ln)” value came out at 10.2 ± 0.11.

Regarding “ATAATATAAATACAAACACACAATTGCGTCCACATT [CACACA_site5039]”, the “gcPBM binding intensity (ln)” value amounted to 11.6 ± 0.93.

Take “TCATACGAAATATAAACACACATACAATAAATAAAT [CACACA_site5156]”: the “gcPBM binding intensity (ln)” value was 9.92 ± 0.042.

Regarding “ATATTAAATGTTATCACACACATAATTACTTCCATA [CACACA_site7160]”, the “gcPBM binding intensity (ln)” value turned out to be 10.1 ± 0.13.

For the sequence “TATTAAATGGCCATTACATGCAATTATTTCTAATAA [TGCATGCA_site275]”, the “gcPBM binding intensity (ln)” value is 10 ± 0.19.

In the case of “GGACAAGAATAGTGCACATGCAATGTTATTTTTTAT [TGCATGCA_site450]”, the “gcPBM binding intensity (ln)” value amounted to 10.46 ± 0.064.
